# Experimental data published in the supplement of paper PMC8728848.
# Some of the results follow.
# Legend:
# Assay in all cases: glycan array binding signal (z-score within array); higher = stronger binding
# Conditions in all cases: glycan notation: IUPAC condensed, linker removed
# [1] = biological target: Gal(b1-4)GlcNAc(b1-6)[Gal(b1-3)]GalNAc
# How it was run: (§1)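 Glycan array binding is given as a within-array Z-score, which can be read as non-binding when negative. The arrays, 3228 of them, came from the Consortium for Functional Glycomics database and were retained only where the protein sequence was available. Z-scores were averaged across arrays of the same protein sequence at different concentrations or buffers and across linkers.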
# [2] = biological target: Gal(b1-4)GlcNAc(b1-6)[Gal(b1-4)GlcNAc(b1-3)]GalNAc
# How it was run: as §1
# [3] = biological target: Gal(b1-4)GlcNAc6P
# How it was run: as §1
# [4] = biological target: Gal(b1-6)Gal
# How it was run: as §1
# [5] = biological target: Gal3S(b1-3)GalNAc
# How it was run: as §1
# [6] = biological target: Gal3S(b1-3)GlcNAc
# How it was run: as §1
# [7] = biological target: Gal3S(b1-3)[Fuc(a1-4)]GlcNAc
# How it was run: as §1
# [8] = biological target: Gal3S(b1-4)Glc
# How it was run: as §1
# [9] = biological target: Gal3S(b1-4)Glc6S
# How it was run: as §1
# [10] = biological target: Gal3S(b1-4)GlcNAc
# How it was run: as §1
# [11] = biological target: Gal3S(b1-4)[Fuc(a1-3)]Glc6S
# How it was run: as §1
# [12] = biological target: Gal3S(b1-4)[Fuc(a1-3)]GlcNAc
# How it was run: as §1
# [13] = biological target: Gal3S(b1-4)[Fuc(a1-3)]GlcNAc6S
# How it was run: as §1
# [14] = biological target: Gal3S4S(b1-4)GlcNAc
# How it was run: as §1
# [15] = biological target: Gal3S6S(b1-4)GlcNAc
# How it was run: as §1
# [16] = biological target: Gal3S6S(b1-4)GlcNAc6S
# How it was run: as §1
# [17] = biological target: Gal4S(b1-4)GlcNAc
# How it was run: as §1
# [18] = biological target: Gal4S6S(b1-4)GlcNAc
# How it was run: as §1
# [19] = biological target: Gal6P(b1-4)GlcNAc
# How it was run: as §1
# [20] = biological target: Gal6S(b1-3)GlcNAc
# How it was run: as §1
# [21] = biological target: Gal6S(b1-3)GlcNAc6S
# How it was run: as §1
# [22] = biological target: Gal6S(b1-4)Glc
# How it was run: as §1
# [23] = biological target: Gal6S(b1-4)Glc6S
# How it was run: as §1
# [24] = biological target: Gal6S(b1-4)GlcNAc
# How it was run: as §1
# [25] = biological target: Gal6S(b1-4)GlcNAc6S
# How it was run: as §1
# [26] = biological target: GalNAc(a1-3)Gal
# How it was run: as §1
# [27] = biological target: GalNAc(a1-3)GalNAc
# How it was run: as §1
# [28] = biological target: GalNAc(a1-3)GalNAc(a1-3)Gal(a1-4)Gal(b1-4)GlcNAc
# How it was run: as §1
# [29] = biological target: GalNAc(a1-3)GalNAc(b1-3)Gal(a1-4)Gal(b1-4)Glc
# How it was run: as §1
# [30] = biological target: GalNAc(b1-3)Gal
# How it was run: as §1
# [31] = biological target: GalNAc(b1-3)Gal(a1-4)Gal(b1-4)GlcNAc
# How it was run: as §1
# [32] = biological target: GalNAc(b1-3)Gal(a1-4)Gal(b1-4)GlcNAc(b1-3)Gal(b1-4)Glc
# How it was run: as §1
# [33] = biological target: GalNAc(b1-3)Gal(a1-6)Gal(b1-4)Glc
# How it was run: as §1
# [34] = biological target: GalNAc(b1-3)GalNAc
# How it was run: as §1
# [35] = biological target: GalNAc(b1-3)GlcNAc
# How it was run: as §1
# [36] = biological target: GalNAc(b1-4)Gal(b1-4)Glc
# How it was run: as §1
# [37] = biological target: GalNAc(b1-4)GlcNAc
# How it was run: as §1
# [38] = biological target: GalNAc(b1-4)GlcNAc(b1-2)Man
# How it was run: as §1
binder,measurement,setting,value
Pbx1 (Cryptococcus neoformans) (protein) ATTKCLVSGDQDSINNALALGGEGTTVTLCPGSVHRLNSSIIFTAPSQTLTTLGNPKDRNRAMLVVDGEDLACAIRADCKQCSHAMIRSLVIDGNRPQLLRIPKGDALIEVGNAESQTVRDCKLYEPRGWSALHFREGDERQCRFGHIVDNEIGPCGEEWDDEYDSMDETKPLWGNPRADGISLACKDSIVERNVVYDATDGAIVLFGSAGSTVKNNHVYARTRVILGGINLVDYEPWDGDYTNVKVHHNHLYALGRYFKVGIVIGPASWSDDTESVVHSASVTDNEFSGGYWGYGIVVASAKNFEVLRNKVIWDGEQGVARFSGVPGSRCPKAPENGKPTAFLINRGSAKGIFQDDFVNGEVQHIICLNPDQDPPYKPWRFRDSPEAIAAKQAENPTANSAFDSRIAEALVSYQMSLLNSMDAMTQKVEHLTNPIVDDALPFVHEHERAEADKKARQEASRKEKESGNKDVDMLNVKVEELEKSGRRLKKALDGLKSDFEGLSGRLKKSADENKPIIETIFVTSQNLLLGATSQQN,glycan array binding signal (z-score),[1],0.047
same,glycan array binding signal (z-score),[2],-0.486
same,glycan array binding signal (z-score),[3],0.187
same,glycan array binding signal (z-score),[4],-0.233
same,glycan array binding signal (z-score),[5],-0.637
same,glycan array binding signal (z-score),[6],-0.239
same,glycan array binding signal (z-score),[7],-0.47
same,glycan array binding signal (z-score),[8],1.28
same,glycan array binding signal (z-score),[9],1.12
same,glycan array binding signal (z-score),[10],0.074
same,glycan array binding signal (z-score),[11],1.23
same,glycan array binding signal (z-score),[12],-0.485
same,glycan array binding signal (z-score),[13],-0.436
same,glycan array binding signal (z-score),[14],-0.067
same,glycan array binding signal (z-score),[15],-0.248
same,glycan array binding signal (z-score),[16],-0.29
same,glycan array binding signal (z-score),[17],-0.557
same,glycan array binding signal (z-score),[18],-0.366
same,glycan array binding signal (z-score),[19],-0.364
same,glycan array binding signal (z-score),[20],0.304
same,glycan array binding signal (z-score),[21],-0.729
same,glycan array binding signal (z-score),[22],0.117
same,glycan array binding signal (z-score),[23],-0.351
same,glycan array binding signal (z-score),[24],-1.11
same,glycan array binding signal (z-score),[25],-0.075
same,glycan array binding signal (z-score),[26],-0.844
same,glycan array binding signal (z-score),[27],-0.282
same,glycan array binding signal (z-score),[28],-0.078
same,glycan array binding signal (z-score),[29],-0.349
same,glycan array binding signal (z-score),[30],0.919
same,glycan array binding signal (z-score),[31],-0.37
same,glycan array binding signal (z-score),[32],-0.341
same,glycan array binding signal (z-score),[33],-0.628
same,glycan array binding signal (z-score),[34],-0.877
same,glycan array binding signal (z-score),[35],0.848
same,glycan array binding signal (z-score),[36],-0.606
same,glycan array binding signal (z-score),[37],0.356
same,glycan array binding signal (z-score),[38],-0.323
